Target: human Cav2.2 (Homo sapiens, UniProt Q00975)
Experiment: In vitro assessment of calcium channel activity using FLIPR (Ca2+ influx in IMR32 cells)
Format: cell-based
Settings: IMR32 cells endogenously expressing human Cav2.2; Calcium 4 dye, 60 minute pre-incubation, 2 μM nifedipine, depolarized with 80 mM KCl; average of at least two runs unless marked *
Protocol: The IMR32 cells were maintained in MEM media containing 10% (v/v) FBS, 1% (v/v) antibiotic/antimitotic, 1% (v/v) sodium pyruvate and 1% (v/v) MEM NEAA. Following dissociation in 0.05% (v/v) trypsin/EDTA, cells were seeded into black 1×96-well plates (Corning Cellbind) at a density of 1−1.2×10^5 cells/well and incubated in the maintenance media above for 48 hours at 37° C. Immediately prior to performing the assay the media was removed and cells were loaded for 1.5 hours with 1× Calcium 4 dye prepared in HBSS (137 mM NaCl, 5.4 mM KCl, 0.25 mM Na2HPO4, 0.44 mM KH2PO4, 1.3 mM CaCl2, 1 mM MgSO4, 4.2 mM NaHCO3) containing HEPES pH 7.4 at room temperature. After dye loading and a subsequent 60 minute pre-incubation with compounds (full log dilutions from 10 μM to 0.1 nM) in the presence of 1.3 mM CaCl2 and 2 μM nifedipine to block endogenous L-type channels, the external Ca^2+ concentration was increased to 5 mM CaCl2 and the cells concomitantly depolarized with 80 mM KCl to assay channel activity. To determine the IC50 values, the percent inhibition of the compound at each concentration was determined relative to the activity in the absence of inhibitor, and data was fitted using non-linear regression sigmoidal dose response curve analysis with GraphPad Prism®. Unless otherwise indicated (*), the reported values are average values from at least two runs (i.e., n≧2).

Compound | IC50 [nM]
Cc1ccc(S(=O)(=O)N2CCN3C[C@H](Oc4cnc(C5CC5)cn4)C[C@H]3C2)cc1C [Example 175, (7R,8aS)-7-[(5-cyclopropylpyrazin-2-yl)oxy]-2-[(3,4-dimethylphenyl)-sulfonyl]octahydropyrrolo[1,2-a]pyrazine] | 1330
O=C(N[C@H]1C[C@H]2CN(S(=O)(=O)c3cccc(C(F)(F)F)c3)CCN2C1)c1ccc(Cl)cc1 [Example 5, 4-chloro-N-[(7S,8aS)-2-{[3-(trifluoromethyl)phenyl]sulfonyl}octahydropyrrolo[1,2-a]pyrazin-7-yl]benzamide] | 750
O=C(N[C@H]1C[C@H]2CN(S(=O)(=O)c3cc(C(F)(F)F)ccc3Cl)CCN2C1)c1ccc(F)cc1 [Example 4, N-[(7S,8aS)-2-{[2-chloro-5-(trifluoromethyl)phenyl]sulfonyl}octahydropyrrolo[1,2-a]pyrazin-7-yl]-4-fluorobenzamide] | 3830
O=C(N[C@H]1C[C@H]2CN(S(=O)(=O)c3ccc(C(F)(F)F)cc3Cl)CCN2C1)c1ccc(F)cc1 [Example 3, N-[(7S,8aS)-2-{[2-chloro-4-(trifluoromethyl)phenyl]sulfonyl}octahydropyrrolo[1,2-a]pyrazin-7-yl]-4-fluorobenzamide] | 1010
C=C(C)c1cnc(O[C@@H]2C[C@H]3CN(S(=O)(=O)c4cccc(C(C)(C)C)c4)CCN3C2)cn1 [Example 113, (7R,8aS)-2-[(3-tert-butylphenyl)sulfonyl]-7-{[5-(prop-1-en-2-yl)pyrazin-2-yl]oxy}octahydropyrrolo[1,2-a]pyrazine] | 940
COc1ccc(C(C)(C)C)cc1S(=O)(=O)N1CCN2C[C@H](Oc3cnc(C4CC4)cn3)C[C@H]2C1 [Example 71, (7R,8aS)-2-[(5-tert-butyl-2-methoxyphenyl)sulfonyl]-7-[(5-cyclopropylpyrazin-2-yl)oxy]octahydropyrrolo[1,2-a]pyrazine] | 2350
Cc1cncc(O[C@@H]2C[C@H]3CN(S(=O)(=O)c4cccc(C(F)(F)F)c4)CCN3C2)n1 [Example 81, (7R,8aS)-7-[(6-methylpyrazin-2-yl)oxy]-2-{[3-(trifluoromethyl)phenyl]-sulfonyl}octahydropyrrolo[1,2-a]pyrazine] | 3180
O=S(=O)(c1ccc(Cl)cc1Cl)N1CCN2C[C@H](Oc3cnc(C4CC4)cn3)C[C@H]2C1 [Example 154, (7R,8aS)-7-[(5-cyclopropylpyrazin-2-yl)oxy]-2-[(2,4-dichlorophenyl)-sulfonyl]octahydropyrrolo[1,2-a]pyrazine] | 1260
C=C(C)c1cnc(O[C@@H]2C[C@H]3CN(S(=O)(=O)c4cccc(C(F)(F)F)n4)CCN3C2)cn1 [Example 204, (7R,8aS)-7-{[5-(prop-1-en-2-yl)pyrazin-2-yl]oxy}-2-{[6-(trifluoromethyl)-pyridin-2-yl]sulfonyl}octahydropyrrolo[1,2-a]pyrazine] | 380
C=C(C)c1cnc(O[C@@H]2C[C@H]3CN(S(=O)(=O)c4ccc(C(F)(F)F)cc4)CCN3C2)cn1 [Example 116, (7R,8aS)-7-{[5-(prop-1-en-2-yl)pyrazin-2-yl]oxy}-2-{[4-(trifluoromethyl)-phenyl]sulfonyl}octahydropyrrolo[1,2-a]pyrazine] | 2570
O=C1[C@H](C(O)c2cccc(F)c2)C[C@H]2CN(S(=O)(=O)c3cccc(C(F)(F)F)c3)CCN12 (stereo partly drawn) [Example 215, (7S,8aS)-7-[(3-fluorophenyl)(hydroxy)methyl]-2-{[3-(trifluoromethyl)-phenyl]sulfonyl}hexahydropyrrolo[1,2-a]pyrazin-6(2H)-one] | 1110
O=C1[C@H](Oc2cnc(C3CC3)cn2)C[C@@H]2CN(S(=O)(=O)c3cccc(C(F)(F)F)c3)CCN12 [Example 210, (7R,8aR)-7-[(5-cyclopropylpyrazin-2-yl)oxy]-2-{[3-(trifluoromethyl)-phenyl]sulfonyl}hexahydropyrrolo[1,2-a]pyrazin-6(2H)-one] | 1660
O=S(=O)(c1ccc(Cl)nc1)N1CCN2C[C@H](Oc3cnc(C4CC4)cn3)C[C@H]2C1 [Example 75, (7R,8aS)-2-[(6-chloropyridin-3-yl)sulfonyl]-7-[(5-cyclopropylpyrazin-2-yl)-oxy]octahydropyrrolo[1,2-a]pyrazine] | 19400
O=S(=O)(c1ccc2c(c1)CCC2)N1CCN2C[C@H](Oc3cnc(C4CC4)cn3)C[C@H]2C1 [Example 174, (7R,8aS)-7-[(5-cyclopropylpyrazin-2-yl)oxy]-2-(2,3-dihydro-1H-inden-5-yl-sulfonyl)octahydropyrrolo[1,2-a]pyrazine] | 1520
O=S(=O)(c1cccc(C(F)(F)F)c1)N1CCN2C[C@H](Oc3ccc(C(F)(F)F)cn3)C[C@H]2C1 [Example 83, (7R,8aS)-2-{[3-(trifluoromethyl)phenyl]sulfonyl}-7-{[5-(trifluoromethyl)-pyridin-2-yl]oxy}octahydropyrrolo[1,2-a]pyrazine] | 1220
Cc1ccccc1S(=O)(=O)N1CCN2C[C@H](Oc3cnc(C4CC4)cn3)C[C@H]2C1 [Example 158, (7R,8aS)-7-[(5-cyclopropylpyrazin-2-yl)oxy]-2-[(2-methylphenyl)-sulfonyl]octahydropyrrolo[1,2-a]pyrazine] | 2580
O=S(=O)(c1cccc(C(F)(F)F)c1)N1CCN2C[C@H](Oc3cnc(C4CC4)cn3)C[C@@H]2C1 [Example 111, (7R,8aR)-7-[(5-cyclopropylpyrazin-2-yl)oxy]-2-{[3-(trifluoromethyl)phenyl]-sulfonyl}octahydropyrrolo[1,2-a]pyrazine] | 2900
O=S(=O)(c1ccc(Cl)s1)N1CCN2C[C@H](Oc3cnc(C4CC4)cn3)C[C@H]2C1 [Example 141, (7R,8aS)-2-[(5-chloro-2-thienyl)sulfonyl]-7-[(5-cyclopropylpyrazin-2-yl)-oxy]octahydropyrrolo[1,2-a]pyrazine] | 1990
O=S(=O)(c1ccc2c(c1)CCCC2)N1CCN2C[C@H](Oc3cnc(C4CC4)cn3)C[C@H]2C1 [Example 169, (7R,8aS)-7-[(5-cyclopropylpyrazin-2-yl)oxy]-2-(5,6,7,8-tetrahydronaphthalen-2-ylsulfonyl)octahydropyrrolo[1,2-a]pyrazine] | 1140
Cc1ccc(S(=O)(=O)N2CCN3C[C@H](Oc4cnc(C5CC5)cn4)C[C@H]3C2)cc1C(F)(F)F [Example 180, (7R,8aS)-7-[(5-cyclopropylpyrazin-2-yl)oxy]-2-{[4-methyl-3-(trifluoromethyl)phenyl]sulfonyl}octahydropyrrolo[1,2-a]pyrazine] | 500
N#Cc1ccc(S(=O)(=O)N2CCN3C[C@H](Oc4cnc(C5CC5)cn4)C[C@H]3C2)cc1C(F)(F)F [Example 65, 4-{[(7R,8aS)-7-[(5-cyclopropylpyrazin-2-yl)oxy]hexahydropyrrolo[1,2-a]-pyrazin-2(1H)-yl]sulfonyl}-2-(trifluoromethyl)benzonitrile] | 1650
Cc1ccc(F)cc1S(=O)(=O)N1CCN2C[C@H](Oc3cnc(C4CC4)cn3)C[C@H]2C1 [Example 139, (7R,8aS)-7-[(5-cyclopropylpyrazin-2-yl)oxy]-2-[(5-fluoro-2-methylphenyl)-sulfonyl]octahydropyrrolo[1,2-a]pyrazine] | 1320
O=S(=O)(c1cccc(C(F)(F)F)c1)N1CCN2C[C@H](Oc3ccc(Br)nc3)C[C@H]2C1 [Example 87, (7R,8aS)-7-[(6-bromopyridin-3-yl)oxy]-2-{[3-(trifluoromethyl)phenyl]-sulfonyl}octahydropyaolo[1,2-a]pyrazine] | 1120
O=C(N[C@H]1C[C@H]2CN(S(=O)(=O)c3ccc(Cl)cc3Cl)CCN2C1)c1ccc(F)cc1F [Example 12, N-{(7S,8aS)-2-[(2,4-dichlorophenyl)sulfonyl]octahydropyrrolo[1,2-a]pyrazin-7-yl}-2,4-difluorobenzamide] | 2530
(7R,8aS)-2-{[4-chloro-3-(trifluoromethyl)phenyl]sulfonyl}-7-ethoxy-octahydropyrrolo[1,2-a]pyrazine [Example 188] | > 30000
O=S(=O)(c1cccc(C(F)(F)F)c1)N1CCN2C[C@H](Oc3ccc(C4CC4)nn3)C[C@H]2C1 [Example 44, (7R,8aS)-7-[(6-cyclopropylpyridazin-3-yl)oxy]-2-{[3-(trifluoromethyl)-phenyl]sulfonyl}octahydropyrrolo[1,2-a]pyrazine] | 1300
O=C(N[C@H]1C[C@H]2CN(S(=O)(=O)c3ccc(C(F)(F)F)cc3Cl)CCN2C1)c1ccc(F)c(F)c1 [Example 13, N-[(7S,8aS)-2-{[2-chloro-4-(trifluoromethyl)phenyl]sulfonyl}octahydropyrrolo[1,2-a]pyrazin-7-yl]-3,4-difluorobenzamide] | 950
CC(C)c1cnc(O[C@@H]2C[C@H]3CN(S(=O)(=O)c4cccc(C(C)(C)C)n4)CCN3C2)cn1 [Example 203, (7R,8aS)-2-[(6-tert-butylpyridin-2-yl)sulfonyl]-7-[(5-isopropylpyrazin-2-yl)-oxy]octahydropyrrolo[1,2-a]pyrazine] | 130
O=S(=O)(c1ccc(Cl)cc1)N1CCN2C[C@H](Oc3cnc(C4CC4)cn3)C[C@H]2C1 [Example 142, (7R,8aS)-2-[(4-chlorophenyl)sulfonyl]-7-[(5-cyclopropylpyrazin-2-yl)oxy]-octahydropyrrolo[1,2-a]pyrazine] | 3030
